The list shows a part of the results.
Legend:
HSkMC = human skeletal muscle cells; experiment: cytotoxicity call (relative viability < 0.9); conditions: 10 µM
HepG2 = experiment: cytotoxicity call (relative viability < 0.9); conditions: 10 µM
S. aureus RN4220 = experiment: growth inhibition call (relative growth <= 0.2); conditions: 50 µM

C[C@@H]1CCCCO[C@@H](CN(C)C(=O)NC2CCCCC2)[C@@H](C)CN([C@H](C)CO)C(=O)c2cc(NC(=O)C3CCCCC3)ccc2O1
inactive: cytotoxicity call (HSkMC) | cytotoxicity call (HepG2) | growth inhibition call (S. aureus RN4220)

Cc1ccc(S(=O)(=O)N2C[C@H](O)COC[C@H]3O[C@H](CC(=O)NCCCN(C)C)CC[C@@H]32)cc1
inactive: cytotoxicity call (HSkMC) | cytotoxicity call (HepG2) | growth inhibition call (S. aureus RN4220)

C[C@H]1CCCCO[C@H](CN(C)S(=O)(=O)c2ccc(Cl)cc2)[C@@H](C)CN([C@@H](C)CO)C(=O)c2cc(NC(=O)C3CCCCC3)ccc2O1
inactive: cytotoxicity call (HSkMC) | cytotoxicity call (HepG2) | growth inhibition call (S. aureus RN4220)

C[C@H](CO)N1C[C@H](C)[C@H](CN(C)S(C)(=O)=O)OCCCC[C@H](C)Oc2ccc(NC(=O)Nc3cccc4ccccc34)cc2C1=O
inactive: cytotoxicity call (HSkMC) | cytotoxicity call (HepG2) | growth inhibition call (S. aureus RN4220)

C[C@H](CO)N1C[C@H](C)[C@H](CN(C)Cc2ccccc2)OCCCC[C@H](C)Oc2ccc(NS(=O)(=O)c3ccc(F)cc3)cc2C1=O
inactive: cytotoxicity call (HSkMC) | cytotoxicity call (HepG2) | growth inhibition call (S. aureus RN4220)

CCS(=O)(=O)N1CC[C@]2(CC1)CN([C@@H](CO)c1[nH]c3cc(ccc3c12)OC)C(=O)Nc1c(noc1C)C
inactive: cytotoxicity call (HSkMC) | cytotoxicity call (HepG2) | growth inhibition call (S. aureus RN4220)

Cc1noc(C)c1NC(=O)Nc1ccc2c(c1)C(=O)N([C@H](C)CO)C[C@H](C)[C@H](CN(C)Cc1ccncc1)OCCCC[C@H](C)O2
inactive: cytotoxicity call (HSkMC) | cytotoxicity call (HepG2) | growth inhibition call (S. aureus RN4220)

Oc1ccc(Oc2ccccc2)cc1
inactive: cytotoxicity call (HSkMC) | cytotoxicity call (HepG2) | growth inhibition call (S. aureus RN4220)

CN(CC(=O)O)C(=N)N
inactive: cytotoxicity call (HSkMC) | cytotoxicity call (HepG2) | growth inhibition call (S. aureus RN4220)

CNC[C@H]1Oc2cc(C#CC(C)(C)O)ccc2S(=O)(=O)N([C@@H](C)CO)C[C@@H]1C
inactive: cytotoxicity call (HSkMC) | cytotoxicity call (HepG2) | growth inhibition call (S. aureus RN4220)

Source: the antibiotic and cytotoxicity screens of Wong et al. (2023)
